# The other results are listed elsewhere or left out.
# Tested on: PF3D7_0420300 AP2 domain 1 (GST-tagged)
# Assay: gcPBM binding intensity (ln(normalized median fluorescence intensity)); higher = stronger DNA binding
# Outline: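 Plasmodium falciparum DNA-binding domains carrying a GST tag were expressed in E. coli and applied for 1 h, at about 25 μg on average, to an Agilent 4 × 180k array. The array held primer-extended double-stranded 36-bp intergenic genomic probes together with negative controls, and binding took place in 1× PBS with 1% milk, 0.2 mg/ml BSA, 0.5% salmon testes DNA and 0.03% Triton X-100. An Alexa488 anti-GST antibody detected bound protein, and the array was scanned at 488 nm. Binding intensity is taken as the highest Masliner-normalised natural-log median intensity across replicate spots of either probe orientation.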
row,Sequence,gcPBM binding intensity (ln)
1,AATCATTTATGGAAAGCATGCTAAATTAGAGTATAC [TGCATGCA_site172],9.27
2,TAATATCATTTAGACACACACTCTTACAATCTGTAA [CACACA_site2590],9.34
3,ATCTAAACCTTTTGAGCACACATATATATATATATA [CACACA_site8526],9.41
4,ATGGGGAATAATGAATGTACACAAATAAAAAGTTGG [XGTACX_site4015],9.25
5,TAAAAATAAAAATAACGTACATACATACTTATATAT [XGTACX_site3745],9.07
6,TAATTTTTTTAAAACACACAAATATGTAAATATGTA [CACACA_site7769],9.11
7,ATTTTTGTGACTAAGACATGCATAAGAGTAAAGAAA [TGCATGCA_site619],9.23
8,ACATATATTATATAACGTACATAACACTATTTCCTT [XGTACX_site6938],9.53
9,TTTTTTTTTTGTAATTGTACTTTTTTAATACTTCTA [XGTACX_site4195],9.29
10,TATACATATATATACACACACATATATATATATATA [CACACA_site4],9.64
11,TATATATATATATTCACACATAAATATATGCACCCA [CACACA_site4263],9.3
12,AACTTATTAAGCCCTCCACATTTCTCTACTACAACT [CACACA_negctrl_site1552],9.46
13,TCTATTTTTCTAATTTGTACATAGCTTTGAGTTAGT [XGTACX_site8977],9.27
14,AGATAAAATATATACACACACATAAATACGTACAAA [CACACA_site1086],10.1
15,AACTTCTTTTTTATAACACACAAAATATATATACAA [CACACA_site282],9.35
16,TAATTATCACATTGCACACACATTTCCTTTTACATT [CACACA_site3443],9.91
17,GGCATACACAGACACACACACACACCCACATATATA [CACACA_site591],10.3
18,AATAAATAAATAAGTACACACATATATATATATATA [CACACA_site284],9.41
19,AAAAGAATGAAACATAATAAATTACATTAAAATAAT [CACACA_negctrl_site897],9.37

row,Sequence,gcPBM binding intensity (ln)
1,ATTTTTTTATTTTGTGCACACACATAAAAATATATA [CACACA_site762],9.58
2,ATAAAATCTTAATCAACAAACAAACAAAAAAAAAAT [CACACA_negctrl_site1161],9.54
3,GATTTTCATATTTTTTGTACTTACATTTTTCTATAC [XGTACX_site6002],9.59
4,TATGTGATATATTTATCACACATTATATATATATAT [CACACA_site5103],9.12
5,AATATTTAATTCAACACACATACATATTTATTAAAA [CACACA_site2342],9.38
6,TAATATGAAAAGTGTACACACGCACAGACAAAAAAA [CACACA_site5594],9.82
7,GCATAAATCAGACACACACACATATATAAATATGTA [CACACA_site7187],9.9
8,ATTCATTTTAATATGGGTACATAAAAATAAAAAGAA [XGTACX_site2801],9.16
9,TATGATGATGAATAACGTACAAAAAAATTAATCACC [XGTACX_site6794],9.55
10,TACATTTTTATTTTTACACACATATTTATTTATATA [CACACA_site6609],9.78
11,ATAAATATATGGTTTCATTATATTAAATTCAATTTA [CACACA_negctrl_site213],8.92
12,TGTTTATTTTTTTTATGTACTTATTTTTTATTGCAT [XGTACX_site719],9.59
13,AACTAAATTTATAATTGTACATTAAAATATGTATTA [XGTACX_site479],9.06
14,AAATATTACATACACGCACACATTAATATATTTAAA [CACACA_site2603],9.56
15,TTTTTTAAAACTTCAAAAAGAGCACTTGAATTTTTT [GTGCAC_negctrl_site455],8.64
16,ACATATACATTTATATGTACTCATTTATCTTATGTA [XGTACX_site6594],9.3
17,ACAAGAACAGAACGTACACACACATATATATATATA [CACACA_site9143],9.85
18,ACCTAATTTTTATATTGTACATAATATAATATATAT [XGTACX_site1715],9.45
19,ACCTACACAAGCATTAAACACACAAAAGGGATACTT [CACACA_site8273],9.75

row,Sequence,gcPBM binding intensity (ln)
1,TTTTACATATATATATGTACGAAAATGAAAAGGTCA [XGTACX_site5576],9.19
2,TATTATAATTTTATATGTACACATATATAAATATAT [XGTACX_site4054],9.03
3,AAAGTTACATTCGACACACACATAACAACTAAATAA [CACACA_site3419],9.86
4,CTAAATAAAGTTAACACACACATAATATTTATATGT [CACACA_site6368],9.61
5,TACATAAACATTTATACACACATTAGATATACATAT [CACACA_site6329],9.59
6,TCAAAGAGTAGAAAGGTGCTTATGAACGAGATAATT,9.25
7,TCATACCTACATAAAAAAAGGGAAACAAAATGTCAT [XGTACX_negctrl_site34],9.34
8,AATAAATATAAATACACACCCATATATATATATATA [CACACA_site5436],9.45
9,TTAAAAAAAAAAAAAAGTACACACTTATAAAATATT [XGTACX_site1630],9.45
10,ACCAATAAATATTTGGTGCATACATATATATATATA,9.15
11,CTCCACAAACAAATCGCACACCCAACCCAACATATA [CACACA_site2650],9.86
12,ATAGAACTGAATAAATCTATAAATAAATATATATAT [GTGCAC_negctrl_site604],9.17
13,TATTATAATGACTATAGTACATAATATTATTTATAT [XGTACX_site1977],9.08
14,TATATATTTATATTTACACACAGTTACTATGTAGAT [CACACA_site3292],9.51
15,ATTAAATGATCAAGGTGTACATTAACAAGAACTATA [XGTACX_site7022],9.29
16,TGAATAAAAAAACCTAGTACTTAAATAAGTATATTT [XGTACX_site7690],9.16
17,TATATATATACATACGTACACACAAATATTAAAATA [CACACA_site1950],9.6
18,TAAAAAAAATAGAAACGTACATAAAAAATAAATAAT [XGTACX_site5796],9.73
19,TCATATAAAACATGCACACATATGTACTCTTATAAA [CACACA_site3748],9.33

# Reference: the supplement of paper PMC11417369
